Where two headings read alike, the source gives them in different places. At least one peptide structure holds a part that was inferred or is arguable (an end, a ring closure or a residue). Where a SMILES comes first, the peptide text is derived from it.
What was measured:
70Z3-C3 cells = experiment: Cellular uptake of BODIPY-labeled peptides by FACS; type: cell-based; conditions: 10 μM labeled peptide, 2 h, 37° C.
Description: 2.2×10^5 cells in 100 μl of 70Z3-C3 were incubated with either 10 μM or with various doses of 10 μM, 5 μM and 1 μM of labeled-peptides at 37° C., 5% CO2. Similarly to fluorescence microscopy experiments, cells alone or incubated with BODIPY®-labeled BSA (ref) or BODIPY®-UBI devoid of the antennapedia cell penetrating sequence were used as negative control, whereas cells with BA-UBI [1] at 10 μM were used as positive control. After 2 h incubation, cells were washed 4 times with PBS at room temperature, and finally diluted 1:3 in PBS before subjected to FACS analysis. Along with the BODIPY® fluorophore the fluorescence intensity was recorded at 525±25 nm using the Gallios Flow cytometer (Beckman Coulter) to analyse each cells sample. Each internalization peptide was assessed by gating a population of 15,000 events and the data were analysed using Kaluza software version 1.2.
For determination of cellular uptake by flow cytometry, the BA-UBI-SAHND306-Q313 stapled peptide was first incubated with 2.2×10^5 70Z3-C3 cells in […] either at 4° C. or 37° C. for 2 h. Bodipy-labeled BSA, bodipy alone and bodipy-UBI were used as negative controls to verify the washing quality and efficient removal of any non-specific binding at the cell surface before FACS analysis. […] After 2 h of incubation, cells were washed four times with PBS at room temperature and diluted at 1:3 in PBS for FACS analysis. Samples were analyzed as previously described in the European patent (No: 15307137.8).

CC2-LZ domain of NEMO [1] = target: T1, CC2-LZ domain of NEMO (Mus musculus, UniProt O88522); experiment: Fluorescence anisotropy/polarization binding assay
T1 sequence (O88522 242-343 limits assumed): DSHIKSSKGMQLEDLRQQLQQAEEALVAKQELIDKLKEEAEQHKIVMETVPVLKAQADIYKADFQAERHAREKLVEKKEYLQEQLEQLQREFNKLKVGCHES

CC2-LZ domain of NEMO [2] = target: T1, CC2-LZ domain of NEMO; conditions: fixed peptide concentration of 10 μM, ref [1]; read-out: KD, previously reported; cited from earlier work
[3] = CD spectroscopy, α-helical content; type: physicochemical; conditions: 50 μM peptide, phosphate buffer pH 7.0, UBI in TFE taken as 100%
NF-κB pathway = NF-κB pathway (Mus musculus, UniProt O88522); experiment: NF-κB inhibition assay, LPS-stimulated 70Z3-C3 lacZ reporter cells; type: cell-based; conditions: 70Z3-C3 cells, 2 h peptide then LPS 4 h; N.I = No inhibition observed; read-out: IC 50 NF-κB inhibition
Chain of NF-κB pathway (O88522 whole entry): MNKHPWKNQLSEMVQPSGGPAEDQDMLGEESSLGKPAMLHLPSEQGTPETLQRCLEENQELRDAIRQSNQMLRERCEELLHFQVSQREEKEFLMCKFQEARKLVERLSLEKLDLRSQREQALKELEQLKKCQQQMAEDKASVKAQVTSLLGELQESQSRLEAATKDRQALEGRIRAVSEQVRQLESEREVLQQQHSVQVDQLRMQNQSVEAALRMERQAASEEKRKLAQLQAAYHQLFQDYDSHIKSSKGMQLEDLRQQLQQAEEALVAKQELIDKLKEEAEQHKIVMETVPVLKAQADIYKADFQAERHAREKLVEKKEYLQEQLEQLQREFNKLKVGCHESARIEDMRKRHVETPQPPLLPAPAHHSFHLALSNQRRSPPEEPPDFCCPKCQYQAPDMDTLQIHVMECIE
Text: The stable cell line of pre-B lymphocyte 70Z3-C3 cells expressing the lacZ reporter gene under the control of NF-κB was previously described. OCI-Ly3 (ABC-DLBCL, MALT1 dependent) and OCI-Ly7 (GCB-DLBCL). U2932 (ABC-DLBCL, MALT1 independent) were purchased from DSMZ (Deutsche Sammlung von Mikroorganismen and Zellkulturen) and HLY1 (ABC-DLBCL, MALT1 independent). Jurkat T-cells were obtained after transduction of lentiviruses containing a NF-κB reporter luciferase gene as previously described. All cell lines were grown in RPMI 1640 medium supplemented with 10% FBS, 10 μg/ml of streptomycin, 10 U/ml of penicillin and kept at 37° C., in a 5% CO2 humidified incubator. 0.05 mM of β-mercaptoethanol was added for 70Z3-C3. Primary and secondary antibodies were as following: polyclonal rabbit anti NF-κB p65, (sc-372, Santa Cruz Biotechnology, Inc) Alexa-488 coupled goat anti-rabbit IgG1 (Invitrogen) NF-κB inhibition assay was almost similar to those previously described in [1], except that luminescence data were monitored with a Centro XS^3, LB960 luminometer (Berthold technologies.), which is more sensitive. All experiments were performed in duplicates in 96-well plates. […] After 4 h incubation, cells were centrifuged 7 min at 400×g, at 4° C.

[4] = Temperature-induced denaturation followed by CD; type: physicochemical; conditions: 30 μM or 300 μM, ΔCp ≈ 0
Description: Temperature-induced denaturation experiments were performed by measuring the ellipticity at 222 nm from 1° C. to 95° C. in 1° C. steps, at a rate of 1° C./min, with a 2 nm bandwidth. Thermodynamic parameters including the melting temperature (Tm) and the van't Hoff enthalpy change at the melting temperature (ΔHm) were determined by fitting the denaturation curves with the Gibbs-Helmholtz equation as described elsewhere, [10]. The heat capacity change (ΔCp) was assumed to be 0 as judged by ΔHm which yielded similar values within 10% at two independent peptide concentrations (30 and 300 μM). The ellipticity was converted to differential extinction coefficient Δε (M^−1·cm^−1) per residue taking into account the peptide concentration determined by amino acid analysis.
Thermal stability of the peptides was also investigated by performing thermal denaturation profiles followed by CD (FIGS. 1 C and D and Table III). […] Indeed, the helicity of UBI-Aib (49%) is only 1.16-fold increased at 1° C. compared to UBI (42%), while its melting temperature (Tm=−8° C.) is 2.25 times higher than that of UBI (Tm=−18° C.).

[5] = fixed peptide concentration 0.1 μM, read-out: Binding affinity (FP) at 0.1 μM

Row | SMILES | FACS peak median, first or only peak (70Z3-C3 cells) | FACS peak median, second peak (70Z3-C3 cells) | Kd (CC2-LZ domain of NEMO [1]; [5]) [µM] | Kd (CC2-LZ domain of NEMO [2]) [µM] | α-helical content at 1° C. [3] [%] | IC50 (NF-κB pathway) [µM] | ΔS [4] [cal. mol^−1.K^−1] | ΔH ([4]; van't Hoff enthalpy change at Tm) [kcal/mol] | binding to CC2-LZ, in words (CC2-LZ domain of NEMO [1]) | Kd (CC2-LZ domain of NEMO [1]; fixed peptide concentration 10 μM, read-out: Binding affinity (FP) at 10 μM) [µM]
1 | CC[C@H](C)[C@H](NC(=O)[C@H](CC(=O)O)NC(=O)[C@H](C)NC(=O)[C@H](CCC(N)=O)NC(=O)[C@H](C)NC(=O)[C@H](CCCCN)NC(=O)[C@H](CC(C)C)NC(=O)[C@H](CCCCN)NC(=O)[C@H](CCCCN)NC(=O)[C@H](Cc1c[nH]c2ccccc12)NC(=O)[C@H](CCCCN)NC(=O)[C@H](CCSC)NC(=O)[C@H](CCCNC(=N)N)NC(=O)[C@H](CCCNC(=N)N)NC(=O)[C@H](CC(N)=O)NC(=O)[C@H](CCC(N)=O)NC(=O)[C@H](Cc1ccccc1)NC(=O)[C@H](Cc1c[nH]c2ccccc12)NC(=O)[C@@H](NC(=O)[C@H](CCCCN)NC(=O)[C@@H](NC(=O)[C@H](CCC(N)=O)NC(=O)[C@@H](N)CCCNC(=N)N)[C@@H](C)CC)[C@@H](C)CC)C(=O)N[C@@H](Cc1ccc(O)cc1)C(=O)N[C@@H](CCCCN)C(=O)N[C@@H](C)C(=O)N[C@@H](CCCNC(=N)N)C(=O)N[C@@H](Cc1ccccc1)C(=O)N[C@@H](CCC(N)=O)C(=O)N[C@@H](C)C(=O)N[C@@H](CCC(=O)O)C(=O)N[C@@H](CCCNC(=N)N)C(=O)N[C@@H](Cc1c[nH]cn1)C(=O)N[C@@H](C)C(=O)N[C@@H](CCCNC(=N)N)C(=O)N[C@@H](CCC(=O)O)C(=O)N[C@@H](CCCCN)C(=O)O [A-UBI, reference compound] (H-RQIKIWFQNRRMKWKKLKAQADIYKARFQAERHAREK-OH) | 36 | 144 | 4 ± 1 | 17 | 46 | 4 ± 1 | – | – | – | –
2 | CC[C@H](C)[C@H](NC(=O)[C@H](CC(=O)O)NC(=O)[C@H](C)NC(=O)[C@H](CCC(N)=O)NC(=O)[C@H](C)NC(=O)[C@H](CCCCN)NC(=O)[C@@H](N)CC(C)C)C(=O)N[C@@H](Cc1ccc(O)cc1)C(=O)N[C@@H](CCCCN)C(=O)N[C@@H](C)C(=O)N[C@@H](CCCNC(=N)N)C(=O)N[C@@H](Cc1ccccc1)C(=O)N[C@@H](CCC(N)=O)C(=O)N[C@@H](C)C(=O)N[C@@H](CCC(=O)O)C(=O)N[C@@H](CCCNC(=N)N)C(=O)N[C@@H](Cc1c[nH]cn1)C(=O)N[C@@H](C)C(=O)N[C@@H](CCCNC(=N)N)C(=O)N[C@@H](CCC(=O)O)C(=O)N[C@@H](CCCCN)C(=O)O [UBI, reference compound] (H-LKAQADIYKARFQAERHAREK-OH) | 20 | – | > 10000 | – | 42 | – | −22 | -5.75 | No binding activity | > 10000
